# The other results are listed elsewhere or left out.
# B1: E-Selectin (Homo sapiens), P16581 (protein)
# chain: MIASQFLSALTLVLLIKESGAWSYNTSTEAMTYDEASAYCQQRYTHLVAIQNKEEIEYLNSILSYSPSYYWIGIRKVNNVWVWVGTQKPLTEEAKNWAPGEPNNRQKDEDCVEIYIKREKDVGMWNDERCSKKKLALCYTAACTNTSCSGHGECVETINNYTCKCDPGFSGLKCEQIVNCTALESPEHGSLVCSHPLGNFSYNSSCSISCDRGYLPSSMETMQCMSSGEWSAPIPACNVVECDAVTNPANGFVECFQNPGSFPWNTTCTFDCEEGFELMGAQSLQCTSSGNWDNEKPTCKAVTCRAVRQPQNGSVRCSHSPAGEFTFKSSCNFTCEEGFMLQGPAQVECTTQGQWTQQIPVCEAFQCTALSNPERGYMNCLPSASGSFRYGSSCEFSCEQGFVLKGSKRLQCGPTGEWDNEKPTCEAVRCDAVHQPPKGLVRCAHSPIGEFTYKSSCAFSCEEGFELHGSTQLECTSQGQWTEEVPSCQVVKCSSLAVPGKINMSCSGEPVFGTVCKFACPEGWTLNGSAARTCGATGHWSGLLPTCEAPTESNIPLVAGLSAAGLSLLTLAPFLLWLRKCLRKAKKFVPASSCQSLESDGSYQKPSYIL
# Key:
# Experiment in all cases: glycan array binding signal (z-score within array); higher = stronger binding
# Conditions in all cases: glycan notation: IUPAC condensed, linker removed
# Fuc(a1-2)Gal = target: Fuc(a1-2)Gal
# Summary of the method: (§1)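 From the Consortium for Functional Glycomics database, 3228 arrays were curated, keeping only those whose protein sequence was available. Binding is given as a within-array Z-score averaged across arrays sharing a protein sequence and across linkers. Negative Z-scores can be read as non-binding.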
# Fuc(a1-2)Gal(b1-3)GalNAc = target: Fuc(a1-2)Gal(b1-3)GalNAc
# Summary of the method: as §1
# [1] = target: Fuc(a1-2)Gal(b1-3)GalNAc(b1-3)Gal
# Summary of the method: as §1
# [2] = target: Fuc(a1-2)Gal(b1-3)GalNAc(b1-3)Gal(a1-4)Gal(b1-4)Glc
# Summary of the method: as §1
# [3] = target: Fuc(a1-2)Gal(b1-3)GalNAc(b1-4)[Neu5Ac(a2-3)]Gal(b1-4)Glc
# Summary of the method: as §1
# Fuc(a1-2)Gal(b1-3)GlcNAc = target: Fuc(a1-2)Gal(b1-3)GlcNAc
# Summary of the method: as §1
# [4] = target: Fuc(a1-2)Gal(b1-3)GlcNAc(b1-3)Gal(b1-4)Glc
# Summary of the method: as §1
# [5] = target: Fuc(a1-2)Gal(b1-3)[Fuc(a1-4)]GlcNAc
# Summary of the method: as §1
# Fuc(a1-2)Gal(b1-4)Glc = target: Fuc(a1-2)Gal(b1-4)Glc
# Summary of the method: as §1
# Fuc(a1-2)Gal(b1-4)Glc6S = target: Fuc(a1-2)Gal(b1-4)Glc6S
# Summary of the method: as §1
# Fuc(a1-2)Gal(b1-4)GlcNAc = target: Fuc(a1-2)Gal(b1-4)GlcNAc
# Summary of the method: as §1
# [6] = target: Fuc(a1-2)Gal(b1-4)GlcNAc(b1-3)Gal(b1-4)GlcNAc
# Summary of the method: as §1
# [7] = target: Fuc(a1-2)Gal(b1-4)GlcNAc(b1-3)Gal(b1-4)GlcNAc(b1-3)Gal(b1-4)GlcNAc
# Summary of the method: as §1
# [8] = target: Fuc(a1-2)Gal(b1-4)GlcNAc6S
# Summary of the method: as §1
# [9] = target: Fuc(a1-2)Gal(b1-4)[Fuc(a1-3)]GlcNAc
# Summary of the method: as §1
# [10] = target: Fuc(a1-2)Gal(b1-4)[Fuc(a1-3)]GlcNAc(b1-3)Gal(b1-4)[Fuc(a1-3)]GlcNAc
# Summary of the method: as §1
# [11] = target: Fuc(a1-2)Gal(b1-4)[Fuc(a1-3)]GlcNAc(b1-3)Gal(b1-4)[Fuc(a1-3)]GlcNAc(b1-3)Gal(b1-4)[Fuc(a1-3)]GlcNAc
# Summary of the method: as §1
# Fuc(a1-2)Gal6S(b1-4)Glc = target: Fuc(a1-2)Gal6S(b1-4)Glc
# Summary of the method: as §1
# [12] = target: Fuc(a1-2)Gal6S(b1-4)Glc6S
# Summary of the method: as §1
# [13] = target: Fuc(a1-2)Gal6S(b1-4)GlcNAc
# Summary of the method: as §1
# Fuc(a1-2)GlcNAc = target: Fuc(a1-2)GlcNAc
# Summary of the method: as §1
# Fuc(a1-2)[Gal(a1-3)]Gal = target: Fuc(a1-2)[Gal(a1-3)]Gal
# Summary of the method: as §1
# [14] = target: Fuc(a1-2)[Gal(a1-3)]Gal(b1-3)GlcNAc
# Summary of the method: as §1
# [15] = target: Fuc(a1-2)[Gal(a1-3)]Gal(b1-4)Glc
# Summary of the method: as §1
# [16] = target: Fuc(a1-2)[Gal(a1-3)]Gal(b1-4)GlcNAc
# Summary of the method: as §1
# [17] = target: Fuc(a1-2)[Gal(a1-3)]Gal(b1-4)[Fuc(a1-3)]GlcNAc
# Summary of the method: as §1
# [18] = target: Fuc(a1-2)[Gal(a1-4)]Gal(b1-4)GlcNAc
# Summary of the method: as §1
# [19] = target: Fuc(a1-2)[GalNAc(a1-3)]Gal
# Summary of the method: as §1
# [20] = target: Fuc(a1-2)[GalNAc(a1-3)]Gal(b1-3)GlcNAc
# Summary of the method: as §1
# [21] = target: Fuc(a1-2)[GalNAc(a1-3)]Gal(b1-4)Glc
# Summary of the method: as §1
# [22] = target: Fuc(a1-2)[GalNAc(a1-3)]Gal(b1-4)GlcNAc
# Summary of the method: as §1
# [23] = target: Fuc(a1-2)[GalNAc(a1-3)]Gal(b1-4)[Fuc(a1-3)]GlcNAc
# Summary of the method: as §1
# [24] = target: Fuc(a1-2)[GalNAc(a1-4)]Gal(b1-4)GlcNAc
# Summary of the method: as §1
# [25] = target: Fuc(a1-2)[GalNAc(b1-3)]Gal
# Summary of the method: as §1
# Fuc(a1-3)GlcNAc = target: Fuc(a1-3)GlcNAc
# Summary of the method: as §1
# [26] = target: Fuc(a1-3)[Gal(b1-4)]Glc6S
# Summary of the method: as §1
# [27] = target: Fuc(a1-3)[Gal(b1-4)]GlcNAc
# Summary of the method: as §1
# [28] = target: Fuc(a1-3)[Gal(b1-4)]GlcNAc(b1-2)Man(a1-3)[Fuc(a1-3)[Gal(b1-4)]GlcNAc(b1-2)Man(a1-6)]Man(b1-4)GlcNAc(b1-4)GlcNAc
# Summary of the method: as §1
# [29] = target: Fuc(a1-3)[Gal(b1-4)]GlcNAc(b1-2)Man(a1-6)[Gal(b1-4)GlcNAc(b1-2)Man(a1-3)]Man(b1-4)GlcNAc(b1-4)GlcNAc
# Summary of the method: as §1
# [30] = target: Fuc(a1-3)[Gal(b1-4)]GlcNAc(b1-3)Gal(b1-3)[Fuc(a1-4)]GlcNAc
# Summary of the method: as §1
# [31] = target: Fuc(a1-3)[Gal(b1-4)]GlcNAc(b1-4)Gal(b1-4)[Fuc(a1-3)]GlcNAc
# Summary of the method: as §1
# [32] = target: Fuc(a1-3)[Gal(b1-4)]GlcNAc(b1-4)Gal(b1-4)[Fuc(a1-3)]GlcNAc(b1-4)Gal(b1-4)[Fuc(a1-3)]GlcNAc
# Summary of the method: as §1
# [33] = target: Fuc(a1-3)[Gal(b1-4)]GlcNAc6S
# Summary of the method: as §1
# [34] = target: Fuc(a1-3)[Gal3S(b1-4)]Glc6S
# Summary of the method: as §1
# [35] = target: Fuc(a1-3)[Gal3S(b1-4)]GlcNAc
# Summary of the method: as §1
binder,measurement,setting,value
B1,glycan array binding signal (z-score),Fuc(a1-2)Gal,-0.039
same,glycan array binding signal (z-score),Fuc(a1-2)Gal(b1-3)GalNAc,-0.163
same,glycan array binding signal (z-score),[1],-0.07
same,glycan array binding signal (z-score),[2],-0.204
same,glycan array binding signal (z-score),[3],-0.098
same,glycan array binding signal (z-score),Fuc(a1-2)Gal(b1-3)GlcNAc,-0.238
same,glycan array binding signal (z-score),[4],-0.218
same,glycan array binding signal (z-score),[5],-0.254
same,glycan array binding signal (z-score),Fuc(a1-2)Gal(b1-4)Glc,-0.199
same,glycan array binding signal (z-score),Fuc(a1-2)Gal(b1-4)Glc6S,0.136
same,glycan array binding signal (z-score),Fuc(a1-2)Gal(b1-4)GlcNAc,-0.111
same,glycan array binding signal (z-score),[6],-0.163
same,glycan array binding signal (z-score),[7],-0.045
same,glycan array binding signal (z-score),[8],0.202
same,glycan array binding signal (z-score),[9],-0.255
same,glycan array binding signal (z-score),[10],-0.198
same,glycan array binding signal (z-score),[11],-0.095
same,glycan array binding signal (z-score),Fuc(a1-2)Gal6S(b1-4)Glc,-0.005
same,glycan array binding signal (z-score),[12],0.543
same,glycan array binding signal (z-score),[13],-0.041
same,glycan array binding signal (z-score),Fuc(a1-2)GlcNAc,-0.117
same,glycan array binding signal (z-score),Fuc(a1-2)[Gal(a1-3)]Gal,-0.181
same,glycan array binding signal (z-score),[14],-0.227
same,glycan array binding signal (z-score),[15],-0.226
same,glycan array binding signal (z-score),[16],-0.135
same,glycan array binding signal (z-score),[17],-0.211
same,glycan array binding signal (z-score),[18],-0.065
same,glycan array binding signal (z-score),[19],-0.199
same,glycan array binding signal (z-score),[20],-0.247
same,glycan array binding signal (z-score),[21],-0.205
same,glycan array binding signal (z-score),[22],-0.234
same,glycan array binding signal (z-score),[23],-0.166
same,glycan array binding signal (z-score),[24],-0.146
same,glycan array binding signal (z-score),[25],-0.145
same,glycan array binding signal (z-score),Fuc(a1-3)GlcNAc,-0.144
same,glycan array binding signal (z-score),[26],0.093
same,glycan array binding signal (z-score),[27],-0.178
same,glycan array binding signal (z-score),[28],-0.188
same,glycan array binding signal (z-score),[29],-0.419
same,glycan array binding signal (z-score),[30],-0.144
same,glycan array binding signal (z-score),[31],-0.096
same,glycan array binding signal (z-score),[32],-0.267
same,glycan array binding signal (z-score),[33],0.094
same,glycan array binding signal (z-score),[34],0.501
same,glycan array binding signal (z-score),[35],-0.022

# — the supplement of paper PMC8728848
